Data on five substances can be found in paper PMC3438190.

Protein sequences, listed by entry. Tags and fused reporters are not part of them. Lines headed by an entry give the natural chain unless they say otherwise; changes in a name come on top.
UniProt P60953: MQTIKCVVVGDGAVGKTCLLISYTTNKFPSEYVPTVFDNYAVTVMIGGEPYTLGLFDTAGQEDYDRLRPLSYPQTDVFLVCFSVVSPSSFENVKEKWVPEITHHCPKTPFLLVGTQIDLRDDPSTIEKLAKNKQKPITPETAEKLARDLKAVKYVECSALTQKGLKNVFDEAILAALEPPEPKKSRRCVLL
UniProt P46940: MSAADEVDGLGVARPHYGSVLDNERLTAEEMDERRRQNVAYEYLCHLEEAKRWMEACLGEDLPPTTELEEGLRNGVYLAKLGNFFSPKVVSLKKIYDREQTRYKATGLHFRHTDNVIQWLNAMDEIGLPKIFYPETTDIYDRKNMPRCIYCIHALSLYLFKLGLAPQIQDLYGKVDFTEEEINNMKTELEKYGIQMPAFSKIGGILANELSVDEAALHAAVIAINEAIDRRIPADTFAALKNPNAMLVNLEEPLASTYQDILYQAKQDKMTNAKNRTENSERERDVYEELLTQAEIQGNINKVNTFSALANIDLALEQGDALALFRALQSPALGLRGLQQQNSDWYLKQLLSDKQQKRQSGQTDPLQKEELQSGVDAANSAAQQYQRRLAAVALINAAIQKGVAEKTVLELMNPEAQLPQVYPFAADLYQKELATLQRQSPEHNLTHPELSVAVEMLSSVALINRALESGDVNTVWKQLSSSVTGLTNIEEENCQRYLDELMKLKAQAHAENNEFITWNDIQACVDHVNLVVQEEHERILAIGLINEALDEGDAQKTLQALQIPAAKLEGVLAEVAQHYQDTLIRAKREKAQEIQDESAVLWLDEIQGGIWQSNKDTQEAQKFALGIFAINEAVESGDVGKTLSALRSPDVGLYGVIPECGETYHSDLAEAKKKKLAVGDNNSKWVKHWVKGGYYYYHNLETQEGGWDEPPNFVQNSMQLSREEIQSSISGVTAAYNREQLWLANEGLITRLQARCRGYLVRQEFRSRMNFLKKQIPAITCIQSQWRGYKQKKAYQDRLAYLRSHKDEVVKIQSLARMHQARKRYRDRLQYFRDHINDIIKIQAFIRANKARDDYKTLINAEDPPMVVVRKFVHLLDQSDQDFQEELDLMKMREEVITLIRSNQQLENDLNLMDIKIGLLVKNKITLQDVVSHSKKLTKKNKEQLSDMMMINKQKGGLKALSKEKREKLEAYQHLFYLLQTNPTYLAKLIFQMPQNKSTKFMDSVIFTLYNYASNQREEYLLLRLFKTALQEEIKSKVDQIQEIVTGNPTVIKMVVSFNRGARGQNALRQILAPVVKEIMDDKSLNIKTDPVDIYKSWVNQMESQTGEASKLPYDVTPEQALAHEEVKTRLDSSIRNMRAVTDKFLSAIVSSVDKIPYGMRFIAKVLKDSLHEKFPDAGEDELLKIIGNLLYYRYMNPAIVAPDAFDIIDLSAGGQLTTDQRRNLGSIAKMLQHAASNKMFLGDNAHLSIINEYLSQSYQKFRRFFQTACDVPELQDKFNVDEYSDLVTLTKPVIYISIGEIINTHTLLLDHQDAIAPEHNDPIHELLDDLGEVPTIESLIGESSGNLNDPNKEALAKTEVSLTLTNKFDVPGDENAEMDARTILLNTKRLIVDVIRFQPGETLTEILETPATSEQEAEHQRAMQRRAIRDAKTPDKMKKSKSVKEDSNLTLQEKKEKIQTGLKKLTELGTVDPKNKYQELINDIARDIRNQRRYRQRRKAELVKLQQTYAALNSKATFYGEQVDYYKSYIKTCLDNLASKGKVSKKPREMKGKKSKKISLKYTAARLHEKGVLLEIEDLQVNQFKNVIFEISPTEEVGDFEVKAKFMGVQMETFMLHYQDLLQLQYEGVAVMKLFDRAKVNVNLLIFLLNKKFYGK
UniProt Q5VT25: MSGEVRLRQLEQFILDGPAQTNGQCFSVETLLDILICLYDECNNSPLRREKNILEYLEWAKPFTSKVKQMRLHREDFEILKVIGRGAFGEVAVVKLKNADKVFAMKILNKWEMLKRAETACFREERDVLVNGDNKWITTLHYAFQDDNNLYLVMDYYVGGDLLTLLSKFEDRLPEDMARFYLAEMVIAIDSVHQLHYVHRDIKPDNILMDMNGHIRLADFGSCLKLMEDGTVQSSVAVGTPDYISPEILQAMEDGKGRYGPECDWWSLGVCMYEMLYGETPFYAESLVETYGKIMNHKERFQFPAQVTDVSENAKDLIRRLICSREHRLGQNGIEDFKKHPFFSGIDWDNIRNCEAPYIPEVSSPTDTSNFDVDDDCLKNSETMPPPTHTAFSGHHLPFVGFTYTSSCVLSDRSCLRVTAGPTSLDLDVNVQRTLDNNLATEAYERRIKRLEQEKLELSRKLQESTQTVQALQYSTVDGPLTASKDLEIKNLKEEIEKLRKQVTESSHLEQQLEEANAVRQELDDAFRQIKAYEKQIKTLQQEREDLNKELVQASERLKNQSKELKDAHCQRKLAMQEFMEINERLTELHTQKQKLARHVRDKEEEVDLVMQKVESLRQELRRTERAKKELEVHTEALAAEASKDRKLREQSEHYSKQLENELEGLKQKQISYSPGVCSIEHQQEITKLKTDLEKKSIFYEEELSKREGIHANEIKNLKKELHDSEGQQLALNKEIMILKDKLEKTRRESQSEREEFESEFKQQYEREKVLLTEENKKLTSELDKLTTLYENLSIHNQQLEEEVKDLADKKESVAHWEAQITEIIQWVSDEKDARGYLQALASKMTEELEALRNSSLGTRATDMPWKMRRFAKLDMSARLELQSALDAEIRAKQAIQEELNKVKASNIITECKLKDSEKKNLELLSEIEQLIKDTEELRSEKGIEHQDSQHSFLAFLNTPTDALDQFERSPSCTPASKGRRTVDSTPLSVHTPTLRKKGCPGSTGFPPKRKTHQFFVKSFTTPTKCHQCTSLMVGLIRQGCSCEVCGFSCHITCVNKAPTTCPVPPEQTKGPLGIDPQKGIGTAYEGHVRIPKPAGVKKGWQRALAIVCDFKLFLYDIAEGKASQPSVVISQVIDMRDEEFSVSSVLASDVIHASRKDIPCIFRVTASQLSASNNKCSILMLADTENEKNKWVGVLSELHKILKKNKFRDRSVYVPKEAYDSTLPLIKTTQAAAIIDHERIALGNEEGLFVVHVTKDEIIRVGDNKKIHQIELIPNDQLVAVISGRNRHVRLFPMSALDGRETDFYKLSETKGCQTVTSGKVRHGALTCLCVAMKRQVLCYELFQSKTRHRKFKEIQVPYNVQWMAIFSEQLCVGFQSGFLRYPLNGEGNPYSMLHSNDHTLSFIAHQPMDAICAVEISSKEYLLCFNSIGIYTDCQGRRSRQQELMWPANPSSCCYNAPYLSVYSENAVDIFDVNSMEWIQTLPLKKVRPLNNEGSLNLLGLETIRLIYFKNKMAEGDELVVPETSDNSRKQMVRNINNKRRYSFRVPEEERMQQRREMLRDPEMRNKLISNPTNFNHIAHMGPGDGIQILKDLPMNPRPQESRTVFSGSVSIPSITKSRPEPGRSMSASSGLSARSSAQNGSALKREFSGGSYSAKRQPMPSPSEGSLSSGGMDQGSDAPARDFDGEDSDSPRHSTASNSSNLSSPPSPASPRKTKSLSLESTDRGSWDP
UniProt O00401: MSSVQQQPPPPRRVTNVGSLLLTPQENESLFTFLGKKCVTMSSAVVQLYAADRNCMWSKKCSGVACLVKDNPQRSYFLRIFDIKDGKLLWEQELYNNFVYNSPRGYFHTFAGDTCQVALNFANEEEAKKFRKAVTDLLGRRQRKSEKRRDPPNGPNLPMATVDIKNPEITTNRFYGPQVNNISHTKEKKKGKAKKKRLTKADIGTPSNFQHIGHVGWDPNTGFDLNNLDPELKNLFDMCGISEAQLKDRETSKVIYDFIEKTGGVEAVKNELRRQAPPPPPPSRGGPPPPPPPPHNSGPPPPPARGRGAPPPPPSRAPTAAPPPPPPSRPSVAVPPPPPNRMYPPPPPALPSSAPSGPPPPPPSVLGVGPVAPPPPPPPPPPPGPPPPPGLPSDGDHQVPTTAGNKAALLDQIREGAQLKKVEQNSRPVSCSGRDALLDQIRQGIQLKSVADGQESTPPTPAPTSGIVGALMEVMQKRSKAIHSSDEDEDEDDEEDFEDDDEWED
UniProt Q7L576: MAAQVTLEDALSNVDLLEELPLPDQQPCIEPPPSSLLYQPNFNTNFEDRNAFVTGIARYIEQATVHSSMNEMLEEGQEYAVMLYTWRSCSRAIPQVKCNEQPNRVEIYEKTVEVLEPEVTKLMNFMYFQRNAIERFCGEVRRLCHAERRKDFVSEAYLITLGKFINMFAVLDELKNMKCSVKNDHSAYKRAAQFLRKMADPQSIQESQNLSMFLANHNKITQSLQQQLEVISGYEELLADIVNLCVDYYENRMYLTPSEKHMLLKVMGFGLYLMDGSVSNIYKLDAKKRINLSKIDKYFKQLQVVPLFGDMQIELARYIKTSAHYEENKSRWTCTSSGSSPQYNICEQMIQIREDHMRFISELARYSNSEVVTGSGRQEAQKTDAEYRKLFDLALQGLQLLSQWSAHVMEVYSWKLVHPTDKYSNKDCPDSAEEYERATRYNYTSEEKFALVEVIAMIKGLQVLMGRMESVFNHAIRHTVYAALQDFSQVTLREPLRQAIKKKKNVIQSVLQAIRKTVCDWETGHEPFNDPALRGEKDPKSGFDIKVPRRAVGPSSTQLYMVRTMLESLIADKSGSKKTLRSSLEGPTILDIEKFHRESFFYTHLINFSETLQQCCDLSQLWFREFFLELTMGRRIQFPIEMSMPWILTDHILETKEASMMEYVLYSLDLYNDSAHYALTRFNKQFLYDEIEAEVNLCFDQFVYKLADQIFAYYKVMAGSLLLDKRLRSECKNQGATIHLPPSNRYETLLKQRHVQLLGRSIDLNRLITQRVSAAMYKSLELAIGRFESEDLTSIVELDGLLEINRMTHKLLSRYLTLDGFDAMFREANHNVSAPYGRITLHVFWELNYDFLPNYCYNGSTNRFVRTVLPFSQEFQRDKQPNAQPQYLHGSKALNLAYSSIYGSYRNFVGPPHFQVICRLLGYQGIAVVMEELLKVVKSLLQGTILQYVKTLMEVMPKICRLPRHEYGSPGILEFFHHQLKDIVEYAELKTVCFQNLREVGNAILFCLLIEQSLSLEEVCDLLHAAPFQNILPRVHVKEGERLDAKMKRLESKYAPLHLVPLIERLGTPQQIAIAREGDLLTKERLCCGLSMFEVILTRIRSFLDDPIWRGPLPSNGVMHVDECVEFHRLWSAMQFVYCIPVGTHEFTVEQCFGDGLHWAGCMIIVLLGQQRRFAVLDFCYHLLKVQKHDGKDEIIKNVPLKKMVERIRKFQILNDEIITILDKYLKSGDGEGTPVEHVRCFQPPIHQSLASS
UniProt Q13153: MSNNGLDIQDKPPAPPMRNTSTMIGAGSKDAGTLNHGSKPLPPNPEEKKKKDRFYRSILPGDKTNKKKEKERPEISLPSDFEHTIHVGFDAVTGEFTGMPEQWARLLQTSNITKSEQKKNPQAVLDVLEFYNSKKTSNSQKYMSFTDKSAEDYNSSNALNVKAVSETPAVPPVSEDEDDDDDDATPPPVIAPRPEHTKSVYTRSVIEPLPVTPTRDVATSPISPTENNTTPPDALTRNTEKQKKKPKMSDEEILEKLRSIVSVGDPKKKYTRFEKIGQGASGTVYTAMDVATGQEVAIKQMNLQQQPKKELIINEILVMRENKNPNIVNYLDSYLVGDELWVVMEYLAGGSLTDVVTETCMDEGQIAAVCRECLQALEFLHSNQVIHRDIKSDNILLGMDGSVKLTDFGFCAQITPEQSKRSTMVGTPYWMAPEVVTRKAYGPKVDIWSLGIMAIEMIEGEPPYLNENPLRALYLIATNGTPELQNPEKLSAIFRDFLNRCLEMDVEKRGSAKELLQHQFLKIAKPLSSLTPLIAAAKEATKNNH

What all share (experiment): pull-down; GST-GTPase (GTP[γS]-loaded, or constitutively active Q61L) on glutathione beads as bait, app. 15 µg; HEp2 cell lysate in Fish-buffer (50 mM Tris pH 7.4, 2 mM MgCl2, 10% glycerine, 100 mM NaCl, 1% NP40, 0.5 mg/ml BSA), 4°C, 60 min; immunoblot, densitometry; only the target purified
For assay [1], the target named is GST-Cdc42 Q61L (UniProt P60953).
For assay [2], the target named is GST-Cdc42 (wild type) (UniProt P60953).
The target in assay [3] is GST-Cdc42 Q61L/S71E (UniProt P60953).

These are yes or no findings as the source states them, for the method shown. In cells and extracts the contact can be indirect. Some entries that bind do so weakly or less than the wild type.

For the substance “IQGAP1, endogenous (from UniProt P46940 1-1657)”, in assay [1], the binding result is given as “binds”.

In the case of “MRCK alpha (myotonic dystrophy related Cdc42 kinase alpha), endogenous (from UniProt Q5VT25 1-1732)”, the binding result in assay [2], in assay [1] and in assay [3] was “binds” each time.

In the case of “N-WASP, endogenous (from UniProt O00401 1-505)”, the binding entry in assay [2] and in assay [1] was “binds” each time.

Turning to “Sra-1 (specifically Rac1-associated protein), endogenous (from UniProt Q7L576 1-1253)”, the binding result in assay [2] and in assay [1] was “no binding” in each case.

For the substance “full length PAK1, endogenous (from UniProt Q13153 1-545)”, the binding entry in assay [2] and in assay [1] was “binds” throughout.
